Assay results from PubChem BioAssay AID624202 (National Center for Advancing Translational Sciences (NCATS), 2012).
About 4,000 (1.1%) of roughly 380,000 compounds were called active. The shares of active, inactive and inconclusive entries below differ from those in the screen. The call rests on the fitted dose curve; in most records, active means well fitted activation curve with a large enough effect; inconclusive means small, poorly fitted or top-dose-only effect; inactive means no such curve, though single readings can be large or run the other way. Potencies beside an inconclusive call are fits to weak or partial responses and may not hold up.

test: qHTS Assay to Identify Small Molecule Activators of BRCA1 Expression; settings: MCF7-BRCA1-FFLuc reporter, luminescence, 48 h; activation: at 46.1 µM (top of the series), scaled: vehicle 0%, 10 µM genistein 100% unless noted; further: nearly all actives have a fitted effect of over 80% in size
In short: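 Compounds are tested at multiple concentrations on MCF7 BRCA1-luciferase reporter cells seeded at 2000 per well; after 48 h, a single luminescence end-point is taken and curves fitted to the normalized data.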
Potency means the concentration at half of the fitted maximal effect; tags describe the fitted curve by direction and shape.

Structure (SMILES)	Potency	activation
CCC(C)Sc1ccc(-c2nc3ccc(C)cn3c2NCc2ccccc2)cc1 (stereo unspecified)	inconclusive: 12.6 µM [activator, partial curve, poor fit]	
CCN(CC)c1ccc(/C=C(\C#N)C(N)=O)cc1	inconclusive: 11.2 µM [activator, partial curve, poor fit]	
CCc1nnc(NC(=O)C2COc3ccccc3O2)s1 (stereo unspecified)	active: 11.2 µM	
CCn1c(CSCc2ccc(C)cc2)nnc1SCC(=O)N1CCN(c2ccccc2)CC1		inactive: -41.3%
O=C(N/N=C1/CC2C=CCC12)c1cccs1 (stereo unspecified)	inconclusive: 25.1 µM [activator, single point]	
CC(=NCc1ccco1)c1c(C(F)(F)F)[nH]n(-c2nc3ccccc3s2)c1=O	inconclusive: 2.51 µM [activator, full curve, poor fit]	
Cc1cccnc1Nc1nc(-c2ccc(F)cc2)cs1		inactive: 22.8%
Nc1nc(-c2ccc3c(c2)CCCC3)cs1	active: 3.16 µM	
Nc1nc(=O)n(C2CC(O)C(CO)O2)cc1F (stereo unspecified)		inconclusive: -88.5% [activator]
CN(C)c1ccc(C(=O)c2ccccc2)cc1	inconclusive: 12.6 µM [activator, partial curve, poor fit]	
Clc1ccccc1OCc1nnc(-c2ccccc2)o1	inconclusive: 2.51 µM [activator, full curve, poor fit]	
O=C(NC12CC3CC(CC(C3)C1)C2)c1ccc(-c2ccc(Cl)cc2)o1	inconclusive: 2.51 µM [activator, partial curve, poor fit]	
CN(C)/C=N/c1nc(-c2ccc3ccccc3c2)cs1	inconclusive: 1.41 µM [activator, full curve, poor fit]	
O=C(NCCc1cccs1)C1CC(c2ccc([N+](=O)[O-])cc2)=NO1 (stereo unspecified)	active: 10 µM	
CCOc1ccc2oc(C(=O)Nc3nccs3)c(C)c2c1	inconclusive: 3.55 µM [activator, partial curve, poor fit]	
CC(C)CCNC(=O)C(=O)NC1CCCC1	inconclusive: 14.1 µM [activator, partial curve, poor fit]	
O=C(COc1ccc(C(=O)c2ccccc2)cc1)Nc1cccnc1		inactive: -8.12%
O=C(CSc1ccc(F)cc1)NC1CCCCC1	active: 11.2 µM	
CCOC(=O)c1ccc(NC(=O)c2nc[nH]c2C(=O)N[C@@H](CC(C)C)C(=O)OCc2ccccc2)cc1		inactive: -28%
Nc1cccc(-c2nc3ccc(N)cc3s2)c1	inconclusive: 3.16 µM [activator, partial curve, poor fit]	
CCOC(=O)c1cc(-c2ccc(OC)cc2)nn1Cc1ccccc1	inconclusive: 6.31 µM [activator, partial curve, poor fit]	
CSc1nc2c(cnn2-c2ccccc2)c(=O)n1N	inconclusive: 12.6 µM [activator, single point]	
CCCCN1CC(COCc2ccccc2)Oc2cccc(F)c2S1(=O)=O (stereo unspecified)		inactive: 0%
CSc1nc2ccc(NC(=O)c3c(F)cccc3F)cc2s1	active: 5.62 µM	
COc1ccc(NC(=O)c2ccco2)cc1NC(=O)c1ccco1		inactive: 0.222%
CCOc1ccc(-c2noc(-c3cccnc3)n2)cc1OC	active: 8.91 µM	

Structure (SMILES)	Potency	activation
CCOC(=O)CNC(=O)c1ccc(SCC)cc1	active: 12.6 µM	
COC(c1ccccc1)c1nnc(CCC(=O)N(C)Cc2cccc(-n3cccn3)c2)o1 (stereo unspecified)	active: 12.6 µM	
COc1c(C(=O)NCCSC(C)(C)C)ccc2ccccc12	inconclusive: 28.2 µM [activator, single point]	
O=C(CSc1nc2ccccc2o1)Nc1nc2ccccc2s1		inactive: 3.63%
COc1ccc(CCc2nc(-c3cccs3)no2)cc1	inconclusive: 10 µM [activator, partial curve, poor fit]	
Cc1cc(OCC(=O)N(C)C2CCCCC2)ccc1Cl	inconclusive: 2 µM [activator, partial curve, poor fit]	
CN1c2ccsc2/C(=N/NC(=O)c2c(F)cccc2F)CS1(=O)=O		inactive: 2.13%
CCCCNC(=O)c1cc(-c2ccc(OC)cc2)on1	inconclusive: 3.16 µM [activator, partial curve, poor fit]	
CSCCC(NC(=O)c1ccco1)C(=O)NC1CCC(C)CC1 (stereo unspecified)	active: 3.55 µM	
CCOc1ccc2nc(NC(=O)Cn3c(C)csc3=O)sc2c1	inconclusive: 14.1 µM [activator, single point]	
Cn1c(=O)cc(SCC(=O)NCCCN2CCN(c3ccccc3F)CC2)c2ccccc21		inactive: -8.09%
O=C(Nc1ccccc1O)c1ccc(NC(=O)C2CC2)cc1	active: 1.78 µM	
COC(=O)c1sc(NC(=O)/C=C/c2ccc(C)o2)nc1C	inconclusive: 2 µM [activator, full curve, poor fit]	
Cc1cc(C(=O)Cn2nnc3ccccc3c2=O)c(C)n1Cc1cccs1		inconclusive: -44.8% [activator]
O=C(O)c1ccc(COc2ccc(Cl)cc2)o1	inconclusive: 11.2 µM [activator, partial curve, poor fit]	
Cc1cccc(-c2cnc3cccnn23)c1	inconclusive: 11.2 µM [activator, partial curve, poor fit]	
Cc1ccc(-c2noc(CN(C)C(=O)c3ccc(Br)o3)n2)cc1		inactive: 8.52%
O=C(NCc1ccc2c(c1)OCO2)C(=O)Nc1cc2c3c(c1)CC(=O)N3CCC2		inactive: -20.2%
NCCCn1c(C(=O)c2ccc(Cl)cc2)c2ccc([N+](=O)[O-])cc2[n+]1[O-]		inactive: -75.2%
O=C(NCCc1ccccc1)c1cnc(Cl)c(Cl)c1	inconclusive: 11.2 µM [activator, partial curve, poor fit]	
Cc1nc(-c2ccccn2)sc1C(=O)Nc1ccc(F)cc1F	inconclusive: 17.8 µM [activator, single point]	
COc1ccc(-c2csc(NCc3ccco3)n2)cc1	inconclusive: 22.4 µM [activator, single point]	
COCC(C)NC(=O)c1cc(-c2cccc(OC)c2)on1 (stereo unspecified)	active: 10 µM	
O=S(=O)(Cc1nc2ccccc2s1)c1ccccc1	inconclusive: 2.51 µM [activator, full curve, poor fit]	
Cc1ccc(Nc2c(-c3ccccn3)nc3cccc(C)n23)cc1		inactive: -71.3%
O=C(NCCc1nc2ccccc2[nH]1)c1ccc(Br)o1		inactive: -2.59%

Structure (SMILES)	Potency	activation
CCC(=O)NC(=S)Nc1ccc(N2CCOCC2)cc1	inconclusive: 14.1 µM [activator, partial curve, poor fit]	
COc1ccc(-c2nc(NC(=O)CSc3nnc4ccccn34)ns2)cc1	inconclusive: 15.8 µM [activator, partial curve, poor fit]	
CCN(CC)CC(=O)Nc1scc2c1c(=O)oc1ccccc12	active: 11.2 µM	
O=C(N/N=C/c1ccc2cccnc2c1)c1ccco1	inconclusive: 0.631 µM [activator, full curve, poor fit]	
COc1cc(/C=C(\C#N)C(=O)Nc2cccc(C(=O)O)c2)ccc1OCc1ccc(F)cc1	active: 11.2 µM	
CC(C)(C)C(=O)NC(=S)NCCc1ccccc1	inconclusive: 11.2 µM [activator, partial curve, poor fit]	
O=C(Nc1nnc(Cc2ccc(Cl)cc2)s1)c1ccco1	inconclusive: 14.1 µM [activator, partial curve, poor fit]	
CSc1ccc(CCNC(=O)CCc2nnc3ccc(NCCCN4CCCC4=O)nn23)cc1		inactive: -26.8%
O=C(c1cc(COc2ccc(F)cc2Cl)on1)N1CCSCC1	active: 6.31 µM	
Cc1nc2ccc(-c3nc4ccccc4o3)cc2[nH]1	inconclusive: 0.562 µM [activator, full curve, poor fit]	
COc1cccc(C#Cc2c(C=O)n(C)c3ccccc23)c1		inactive: -15.7%
CCN(CC)CC(O)COC(c1ccccc1)c1ccccc1 (stereo unspecified)		inactive: 6.24%
Cc1cccnc1NC(=O)Nc1cccc(Cl)c1	inconclusive: 12.6 µM [activator, partial curve, poor fit]	
COC(=O)c1[nH]c2ccc(Cl)cc2c1NC(=O)Oc1ccccc1	inconclusive: 10 µM [activator, partial curve, poor fit]	
O=C(COc1ccc(F)cc1Br)NCc1ccccn1	inconclusive: 35.5 µM [activator, single point]	
COc1ccccc1NC(=O)C1=C(C)Nc2nc(SCc3ccccc3F)nn2C1c1cccs1 (stereo unspecified)		inactive: -15.5%
OCc1cn(-c2ccccc2)nc1-c1ccc(Br)cc1	inconclusive: 11.2 µM [activator, partial curve, poor fit]	
N/C(=N\OC(=O)COc1cc(Cl)c(Cl)cc1Cl)c1ccncc1	inconclusive: 2.24 µM [activator, full curve, poor fit]	
Nc1ccc2c(c1)C=C/C2=C\c1ccccc1	active: 3.98 µM	
COc1ccc(NC(=O)OC(C)C)cc1	inconclusive: 1.58 µM [activator, partial curve, poor fit]	
Cc1ccc(-c2cn(-c3ccccc3F)c(=S)[nH]2)cc1	inconclusive: 3.98 µM [activator, partial curve, poor fit]	
O=c1c(OCc2ccccc2)cccn1Cc1ccccc1	inconclusive: 20 µM [activator, partial curve, poor fit]	
Cc1sc(NC(=O)CS(=O)(=O)c2ccccc2)c(C#N)c1C	inconclusive: 14.1 µM [activator, single point]	
O=C(O)C1Nc2c(Cl)cc(Cl)c(Cl)c2C2C=CCC12 (stereo unspecified)		inactive: 1.31%
